The source holds more than one record for some entries. They are shown here; other results are not. The source may hold further records. The records of an entry are repeats (runs, samples, wells, individuals or studies). Additions like (4×) stand for listed records that agree.
Tested on: 743489-274-T-PDC complex spheroid growth
Assay: Anticancer human tumor 743489-274-T-PDC patient-derived renal cell carcinoma cell line growth inhibition [AhR]
Settings: stronger effect = lower value
Text: Multicellular complex tumor spheroid response to aryl hydrocarbon receptor antagonists in combination with a variety of drugs and investigational agents in selected tumor cell lines
The current study was undertaken to assess response to aryl hydrocarbon receptor antagonists in combination with standard-of-care drugs and investigational agents in solid tumor complex spheroid models. Complex spheroids include a stromal component modeled by human endothelial cells (HUVEC) and fibroblasts modeled by human mesenchymal stem cells (MSCs). The concentration ranges selected for each drug and investigational agent were based upon clinically achievable concentrations if the clinical Cmax of the agent was known.
Compounds. The drugs and investigational agents: BAY 2416964 (NSC825713), GNF351 (NSC835774), CH-223191 (NSC835775), CPI-455 (NSC825282), aza-TdCyd (NSC777586), decitabine (NSC127716), belinostat (NSC758774), entinostat (NSC756642), pevonedistat (NSC761192), tazemetostat (NSC777109), talazoparib (NSC765396), olaparib (NSC753686), selinexor (NSC780203), nedisertib (M3814, NSC802822), bortezomib (NSC756655), venetoclax (NSC766270), doxorubicin (NSC123127), elimusertib (BAY189344, NSC800525), ceralasertib (AZD6738, NSC777638), TAK-243 (NSC785004), alisertib (NSC759677), etoposide (NSC141540), topotecan (NSC609699), eribulin (NSC707389), gemcitabine (NSC613327), carboplatin (NSC241240), cisplatin (NSC119875), and SN-38 (NSC673596) were obtained from the National Cancer Institute (NCI) Developmental Therapeutics Program Chemical Repository (32). The FDA-approved anticancer drug set is available from the Developmental Therapeutics Program at https://dtp.cancer.gov/organization/dscb/obtaining/available plates.htm. […] The stock solutions were prepared in dimethyl sulfoxide (DMSO, Sigma-Aldrich, St. Louis, MO, cat. D2650), except for the platinum compounds which were prepared in saline (Quality Biological, Gaithersburg, MD, cat. 114-055-101), at 800-fold the tested concentration and stored at -70 degrees C prior to their use. All drugs and investigational agents were tested over a range starting from a high concentration at or near the clinical Cmax and decreasing in half-log increments. If the clinical Cmax for an agent had not been determined, the highest concentration tested was 10 microM (Table 1).
Cell Culture. All cells were maintained in an incubator at 37 degrees C and 5% CO2 with 95% humidity. The PDC lines were cultured according to standard operating procedures established by the NCI PDMR (https://pdmr.cancer.gov). Briefly, all PDCs were thawed and cultured in Matrigel-coated flasks prepared with a working solution of 1X Ham's F-12 nutrient mix, without supplementation (Invitrogen, Waltham, MA, cat. 11765054), 100 U/mL penicillin-streptomycin (Invitrogen, cat. 15140122), and 2.5% Matrigel (Corning Inc., Corning, NY, cat. 354248) for the first three passages. All PDCs were cultured in complete DMEM/F-12 media containing advanced DMEM/F-12 (Invitrogen, cat. 12634028), 4.9% defined fetal bovine serum, heat inactivated (HyClone Laboratories Inc., Logan, UT, cat. SH30070.03HI), 389 ng/mL hydrocortisone (Sigma-Aldrich, cat. H4001), 9.7 ng/mL human EGF recombinant protein (Invitrogen, cat. PHG0313), 23.4 microg/mL adenine (Sigma-Aldrich, cat. A2786), 97.3 U/mL penicillin-streptomycin (Invitrogen, cat. 15140122), 1.9 mM L-glutamine (Invitrogen, cat. 25030081), and 9.7 microM Y-27632 dihydrochloride (Tocris Bioscience, Bristol, United Kingdom, cat. 1254). The PDCs were cultured in complete DMEM/F12 media without 10 microM Y-27632 dihydrochloride for at least two passages prior to the screen. The established cell lines NCI-H1341 and […] were cultured in DMEM/F-12, HEPES (Invitrogen, cat. 11330032), 5% defined fetal bovine serum (HyClone Laboratories Inc., cat. SH30070.03), ITS premix universal culture supplement [insulin (5 microg/mL), transferrin (5 microg/mL), and selenious acid (5 ng/mL)] […]
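Also: spheroids exposed to agents for 7 days before readout; 100% = DMSO vehicle control wells.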

With `Cc1ccccc1N=Nc1ccc(NC(=O)c2ccnn2C)c(C)c1` as the molecule, how does the viability, T/C (compound alone 3.16 µM) read?
Its viability, T/C is 84.7, 84.6, 77.7, 75.1, 95.2, 83.1, 90.9, 81.6, 78.3, 90.5, 87, 84.5, 70.4, 87.1, 83.3, 101, 75.6, 82.8, 76.6, 77.5%.

And the viability, T/C (compound alone 10 µM)?
Its viability, T/C is 90, 81.9, 80.4, 81.3, 82, 84.2 (2×), 89.1, 76.8, 91.8, 86.7, 77.7, 68.2, 86.6, 98.8, 86.4, 87.6, 85.5, 78.6, 82.3%.

For `CC(CO)NC(=O)c1cc(-c2ccc(Cl)cc2)nn(-c2cnn(C)c2)c1=O` (centres undefined), which viability, T/C (compound alone 0.1 µM) is on record?
The viability, T/C was 89.9, 104 (2×), 94.1, 107, 88.2, 88.7, 98.7, 94.5, 93.2, 93.4, 87.1, 81.9, 89.1, 92.8, 94.4, 98.8, 106, 97.9, 97.2%.

What about the viability, T/C (compound alone 1 µM) of the same molecule?
Its viability, T/C is 88.3, 110, 86.5, 95.1, 88, 97.1, 92, 93.9, 84.5, 93 (2×), 86.2, 93.6, 91.1, 91.5, 87.5, 91, 96.9, 91.8, 101, 94.9%.

And the viability, T/C (compound alone 3.16 µM)?
The viability, T/C was 87.9 (2×), 89.5, 107, 92.1, 88.2, 81.5, 85.4, 89.9, 94.2, 77.4, 86.5, 91.2, 81.7, 93.9, 84.4, 97, 94.1, 88.7%.

What about the viability, T/C (compound alone 10 µM) of the same molecule?
The viability, T/C was 91.5, 85.9, 107, 89.2, 98.6, 93.9, 90.9, 81.1, 92.9, 86.3, 81.8, 90.3, 96.6, 79.5, 98.5, 91.3, 90.4, 99.5, 99%.

Which results are given for `Cc1cncc(-c2nc(NCCc3c[nH]c4ccccc34)c3ncn(C(C)C)c3n2)c1`?
viability, T/C (compound alone 1 µM): 101, 82, 95.4, 79.4, 91.7 (2×), 99.4, 97.9, 104, 89.2, 85.1, 96.6, 102 (2×), 95.9, 99.7, 108 (2×), 100, 88.9%; viability, T/C (compound alone 3.16 µM): 118, 86.6, 107, 93.8, 106, 109, 133, 108, 104 (2×), 93.4, 98.2, 114, 105, 90.8, 98.8, 123, 110, 119, 95.2%; viability, T/C (compound alone 10 µM): 119 (2×), 104, 112 (3×), 105, 108, 102, 113, 91.8, 115, 100, 109, 95.2, 117, 99.7, 131, 138, 107%

— PubChem BioAssay AID1919002 (Molecular Pharmacology Branch, DTP, NCI, 2023)
